Reference: patent US10524471B2, “Compositions and methods for increasing salt tolerance in plants” (King Abdullah University of Science and Technology, priority 2016, dated 2020)

Test system: ethylene signaling pathway
Details: 7-day-old seedlings, normal conditions, vs mock

NC1(C(=O)O)CC1 [ACC, 1-aminocyclopropane-1-carboxylic acid]
GUS activity in root tips of pEBF2::GUS reporter line: strong GUS activity
